Data taken from PubChem BioAssay AID652104 (National Center for Advancing Translational Sciences (NCATS), 2013).
“And” between values parts separate entries of the source, which are not always exact repeats. Equal values may be shown once. Screen size: about 410,000 compounds; about 7,200 (1.8%) were called active. Inconclusive means that the source gave no clear call. Such entries were picked first, then a sample of the others. The call rests on the fitted dose curve; in most records, active means well fitted activation curve with a large enough effect; inconclusive means small, poorly fitted or top-dose-only effect, or another doubt; inactive means no such curve, though single readings can be large or run the other way. A potency beside an inconclusive call is a rough fit, not a confirmed value.

Experiment: qHTS of TDP-43 Inhibitors; further: nearly all actives have a fitted effect of over 50% in size
Conditions: TDP-43 expressing yeast growth rescue, BacTiter-Glo, 24 h; series mostly up to 46.1 µM
Method in brief: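 Galactose-induced TDP-43 yeast, OD600=0.02, compound pinned; 24 hr, 30 deg C; BacTiter-Glo luminescence for growth. Inhibitors of TDP-43 toxicity read as activators.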
Potency means the concentration at half of the fitted maximal effect; tags describe the fitted curve by direction and shape.

Potency, inactive:
COc1ccc(S(=O)(=O)N(Cc2nc(-c3cccc(C)c3)no2)C2CCCCC2)cc1
CCOc1ccc(C(=O)c2cn(CC(=O)Nc3cc(OC)cc(OC)c3)c3ccc(F)cc3c2=O)cc1
OC(CC#CCN1CCCC1)(c1ccccc1)c1ccccc1
O=C(CCn1c(=O)c2cccn2c2ccc(F)cc21)NCc1ccccc1F
COc1ccc2c(c1)c1ncn(Cc3ccccn3)c(=O)c1n2C
Cn1cc(S(=O)(=O)c2ccccc2)c(=O)c2cc(F)c(N3CCOCC3)cc21
O=C(CN1CCN(Cc2ccccc2Cl)C1=O)NCc1ccccc1Cl
CCc1ccc(CNC(=O)CCc2c(C)nn(-c3ccc(N4CCCCC4)nn3)c2C)cc1
Cc1cccc(-c2nc(CCNC(=O)Cc3ccc(F)cc3)cs2)c1
CCc1ccc(CNC(=O)Cn2nc(-c3ccccc3)ccc2=O)cc1
CC1(C)Oc2ccc3ccc(=O)oc3c2/C(=C/Nc2ccccn2)C1=O
CCc1cc2c(cc3c(=O)n(CC(=O)N4CCC(C)CC4)nc(CC)n32)s1
Cc1ccc(C(=O)COC(=O)c2ccc(O)cc2)cc1
C=C(C)CSc1nc2sc3c(c2c(=O)n1-c1ccccc1)CCN(C)C3
O=c1cc(-c2ccc(F)cc2)[nH][nH]1
Cc1ccc(S(=O)(=O)Oc2ccccc2N2C(=O)C3C4CCC(C4)C3C2=O)cc1 (configuration not stated)
CC(=O)c1cccc(NC(=O)C(Cc2ccccc2)NS(=O)(=O)c2ccc(Br)s2)c1 (configuration not stated)
Cc1ccc(Cn2c(=O)n(Cc3nc(-c4ccccc4)no3)c(=O)c3cc4c(cc32)OCO4)cc1
Cc1ccc(-n2c(=O)c3c4c(sc3n(Cc3ccccc3F)c2=O)CCC4)cc1C
Cc1nc(-c2ccc(Cl)cc2)sc1CCNC(=O)c1ccco1
CCN(C)C1CN(Cc2cn(Cc3ccc(C(F)(F)F)cc3)nn2)S(=O)(=O)C1 (configuration not stated)

Potency, inconclusive:
Cc1noc(C)c1C(=O)Nc1sc(C)c(-c2ccccc2)c1C#N 22.4 µM [activator, single point]
COc1cc(-c2nnc(SCC(=O)N3CCCC3)o2)cc(OC)c1OC 35.5 µM [activator, partial curve]
CCOc1ccc(C(C)NC(=S)NCc2ccc(F)cc2)cc1 (configuration not stated) 17.8 µM [activator, single point]
COc1ccc(C2C3=C(CC(C)(C)CC3=O)Oc3ncn(Cc4ccco4)c(=N)c32)cc1 (configuration not stated) 15.8 µM [activator, single point]
O=C(COC(=O)CSc1cccc2cccc(Cl)c12)Nc1ncc(C(F)(F)F)cc1Cl 25.1 µM [activator, partial curve]
Cc1cc(OCC(=O)NNC(=O)c2cnccn2)cc(C)c1Cl 22.4 µM [activator, single point]
Cc1ccc(-c2csc(C(O)c3cccc(Cl)c3)n2)cc1C (configuration not stated) 35.5 µM [activator, single point]
COc1ccc(C(=O)NC2CCCc3ccccc32)c(OC)c1OC (configuration not stated) 10 µM [activator, single point]
CCCCc1ccc(S(=O)(=O)NC(=O)C2(C)CCN2C(=O)c2ccccc2)cc1 (configuration not stated) 35.5 µM [activator, single point]
COc1cccc(C(O)c2nc(-c3ccccc3C)cs2)c1 (configuration not stated) 22.4 µM [activator, single point]
Cc1cccn2cc(-c3cccc(NS(=O)(=O)c4ccc(Cl)c(Cl)c4)c3)nc12 35.5 µM [activator, single point]
O=C(Cc1ccc(Br)cc1)OCC(=O)c1ccc2c(c1)OCCO2 35.5 µM [activator, single point]
Cc1ccc(C2CCN(C(=S)Nc3cccc(Cl)c3)C2)cc1 (configuration not stated) 17.8 µM [activator, single point]
Cc1[nH]c2ccc(C(=O)N3CCN(c4ccccn4)CC3)cc2c1C 11.2 µM [activator, partial curve]
COc1ccc(NC(=S)Nc2ccc(Oc3ccccc3)cc2)cc1 15.8 µM [activator, single point]
COc1ccccc1NC(=O)CSc1ccc(-c2sc(C)nc2C)nn1 35.5 µM [activator, partial curve]
CC(=O)N1CCC2(CC1)C/C(=N\NC(=S)Nc1ccc(C)cc1)c1cc(O)ccc1O2 28.2 µM [activator, partial curve]
O=C(CCl)N(CCc1ccccc1)CCc1ccccc1 17.8 µM [activator, single point]
COC(=O)CN1C(=O)S/C(=C/c2cc(C)n(C)c2C)C1=O 15.8 µM [activator, single point]
Cc1ccc(-n2ncc3c(NCc4ccc5c(c4)OCO5)ncnc32)c(C)c1 15.8 µM [activator, single point]
CC1CN(c2ncnc3c2cnn3-c2ccc(Cl)cc2)CC(C)O1 (configuration not stated) 2.51 µM [activator, partial curve]
Cc1c(Cl)cccc1NC(=O)c1nc(C)n(-c2cc(OC(C)C)c(Cl)cc2Cl)n1 20 µM [activator, single point]
CC(=O)c1cc2c(s1)-c1cc(F)ccc1OC2 12.6 µM [activator, partial curve]
Cc1cc(C)c(C#N)c(SCC(=O)Nc2cc(C)on2)n1 8.91 µM [activator, full curve, poor fit]
CCc1ccc2c(c1)C(=O)C[C@]1(CCC[C@H](C)C1)O2 1.58 µM [activator, full curve]
O=C(CSc1ncnc2c1cnn2-c1ccccc1)NC1CCCC1 22.4 µM [activator, partial curve, poor fit]
Cc1ccnc(NC(=O)c2ccc(Cl)c(S(=O)(=O)N3CCCCC3)c2)c1 25.1 µM [activator, single point]
CCOC(=O)C1CCN(C(=O)c2ccc3c(c2)sc2nc(-c4ccccc4)cn23)CC1 12.6 µM [activator, partial curve]
C=CCNC(=S)NN=C1CCC(c2ccccc2)CC1 (configuration not stated) 31.6 µM [activator, single point]
CCOC(=O)C1CCN(c2nc(-c3ccc(Br)cc3)nc3ccccc23)CC1 28.2 µM [activator, single point]
O=C(CCCc1ccccc1)Nc1cccc([N+](=O)[O-])c1 35.5 µM [activator, partial curve, poor fit]
Cc1ccc2c(c1)C(c1ccccc1)N(C(=O)c1ccc(OC(C)C)cc1)CC(=O)N2 (configuration not stated) 15.8 µM [activator, partial curve, poor fit]
Cc1ccc(NC(=S)NCc2ccccc2)cc1[N+](=O)[O-] 20 µM [activator, partial curve]
COc1ccc([C@H]2CC(=O)C=C(c3ccc(Cl)c(Cl)c3)C2)cc1 10 µM [activator, partial curve]
CCN(CC)CCC(=O)N1c2ccccc2Sc2ccc(NC(=O)OC)cc21 35.5 µM [activator, single point]
COc1ccc(Cl)cc1C(=O)NCCN1CCOCC1 3.16 µM [activator, partial curve]
CCOC(=O)C1CCN(c2c(C(=O)c3ccccc3)cnc3ccc(CC)cc23)CC1 35.5 µM [activator, single point]
S=C(NCCCc1ccccc1)Nc1ccc(Br)cc1 22.4 µM [activator, single point]
O=C(CSc1nnc(-c2ccco2)n1Cc1ccccc1)OC1CCCCC1 11.2 µM [activator, partial curve]
O=CC(=O)c1ccccc1 0.501 µM [activator, full curve, poor fit]
COc1ccccc1CNc1ccc([N+](=O)[O-])cc1C 4.47 µM [activator, partial curve]
CN(C)c1ccc(CNC(=O)CCCN2C(=O)CCn3nc(-c4cccn4C)cc32)cc1 2.82 µM [activator, partial curve]
COc1c(Cl)cc(Cl)cc1/C=C(\C#N)c1nc2ccccc2[nH]1 28.2 µM [activator, partial curve]

Potency, active:
COCc1c(C(=O)NCC2COc3ccccc3O2)oc2ccccc12 (configuration not stated) 31.6 µM
CC(=O)c1cccc(NC(=O)c2cnn(-c3ccccc3)c2C)c1 14.1 µM
Cn1nc(C(=O)N2CCN(c3cccc(Cl)c3)CC2)c2c1-c1ccccc1S(=O)(=O)C2 14.1 µM and 22.4 µM
O=C(N/N=C/c1cc(Cl)ccc1O)c1ccccc1Br 12.6 µM
Cc1nc2c(-c3ccccc3)c(C)nn2c(C)c1CCC(=O)N1CCN(c2ccccc2)CC1 12.6 µM
CCS(=O)(=O)c1nc2ccccc2n1Cc1ccccc1Cl 15.8 µM
C=CCNc1nc(-c2cc3ccccc3o2)cs1 12.6 µM
O=S(=O)(/C(=C/c1ccc(C(F)(F)F)cc1)c1nc2ccccc2[nH]1)c1ccccc1 10 µM
